Assay results: the supplement of paper PMC11417369
Some of the results follow.

Test system: PfHDP1 homeodomain (GST-tagged)
Assay: gcPBM binding intensity (ln(normalized median fluorescence intensity)); higher = stronger DNA binding
Method in brief: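 Probes on an Agilent 4 × 180k array were primer-extended, double-stranded and 36 bp long, taken from intergenic genomic regions, with negative controls added. GST-tagged P. falciparum DNA-binding domains from E. coli, about 25 μg on average, were applied to the array for 1 h in 1× PBS containing 1% milk, 0.2 mg/ml BSA, 0.5% salmon testes DNA and 0.03% Triton X-100. Binding intensity, obtained after Alexa488 anti-GST antibody detection and a 488 nm scan, is the highest Masliner-normalised natural-log median intensity across replicate spots of either probe orientation.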

Sequence | gcPBM binding intensity (ln)
TATATATATATATGGGGTACAAATGGTCAGTATTAT [XGTACX_site1223] | 9.16
ATATATATATATATAACACACGTGTATATATATGTA [CACACA_site3644] | 9.08
TATTAATCATATAAATGTACGTATATATATTTTTCT [XGTACX_site1421] | 6.45
AAAAAAAAAAAATATATATATATATATATATATATA [CACACA_negctrl_site1606] | 9.51
TATAATATATTATAACGTACAAATATATATATAAAA [XGTACX_site6581] | 6.94
CAATCATAGAAAAACAGTACGTGTAGCAAACATCCT [XGTACX_site4889] | 6.85
ATTTATATTACAAAAAGTACACACATAAATAAATAC [XGTACX_site1827] | 6.99
TATATATATTATATATGTACATATATTTTTTTTTTT [XGTACX_site127] | 7.09
TTTCTATATCTATTTAATTAACTTTTTATACTGATT [GTGCAC_negctrl_site415] | 6.57
GCATCTCATTTGTGATGTACTATATTATCCGTTTTT [XGTACX_site7576] | 6.1
ATCAACAAAACATACACACACATATATATATATATA [CACACA_site2989] | 9.39
CATATCATTGATTATAGTACACATACCATTTTTTAT [XGTACX_site6572] | 6.69
CACATAAAAAAATAAACACACATATGTATTTATATA [CACACA_site5718] | 6.38
CAACACTTAGATTTTAAGTTCACTGGTTAATATATA [CACACA_negctrl_site707] | 5.83
TTAAAAAAATATAGAGCATGCTAAAAATAAAAAAAT [TGCATGCA_site794] | 7.02
AATAAAAATAATATAGTGCATAATATAAGGAAAAAA | 9.58
GTTATACTCATCAACACACACATACAACGTGGTGTA [CACACA_site4789] | 6.8
AGGTCTATATAATAAGTGCATTTTTTTTTTTTTTTT [GTGCAC_site9664] | 8.64
TTTTAAAAAAAAAAAAAAAAAAAAAAAAAAAAAAAA [CACACA_negctrl_site1343] | 6.02
TGTTTTTTTATTTTCACACATAATCCAATTATACAT [CACACA_site6070] | 6.96
TTTTAAAATTATTAGGTGCATATTTATTCTATATTT | 9.12
TGCAATGGAGCATAAAGTACATATAATTGTATTTTT [XGTACX_site7349] | 8.1

Sequence | gcPBM binding intensity (ln)
TAGAATAATCCTTACACACACACACCCACGAATAAA [CACACA_site483] | 7.11
AATACAGAGGAAAATACACACGTATATATATAAATA [CACACA_site9125] | 6.51
CTATGCCCCATATAAACACACAAATAAAAAGAATAT [CACACA_site2681] | 7.21
TTTTTTTCTTTTGGGAGTACCAACATTTTCACATAT [XGTACX_site1371] | 6.58
AAAAAAAAAAGACACACACACACAAATACATACACA [CACACA_site6472] | 6.71
TGAATAAAGATATATACACACATATAGGTATATATC [CACACA_site6870] | 6.37
TGCTTATATTTTTATACACACAAGATACTTTTTGTT [CACACA_site1535] | 6.88
ATCTAAATAAAGTTAACACACACATAATATATATAT [CACACA_site8055] | 8.32
AGTAATATAATATAAGCACACGTGTATTTATTTAGG [CACACA_site7921] | 6.65
AAAAAAAAAAAAAAATACAAGCACATTTATATAAGC [GTGCAC_negctrl_site695] | 6.42
AAATACATTAAAATGACATGCAGATATATATCAAAA [TGCATGCA_site477] | 6.73
TATATATCAATATTTACACACATGCGCCCACATAAA [CACACA_site7185] | 6.98
AAAAAAAAAAAATATGTACACACATATATAATACAT [CACACA_site8473] | 6.46
TATATGTTTGAATATACACACAACATATTTATATAT [CACACA_site7832] | 6.51
TTTTTTGTTAAAAGAGTGCAAATTTTTAAAGATTTG [GTGCAC_site9502] | 8.34
TTTTTTGTACCAAAAAAAAAAAAAAGAAAAAAAAAC [CACACA_negctrl_site1416] | 6.21
TATTTTATTATTATTATTTCTTTATAGTGTATTCTA [CACACA_negctrl_site517] | 6.34
TATTTTATTATTATTATTAGTATGATTTCTTTATAG [CACACA_negctrl_site550] | 6.4
GGATAGGCATAACATAGTACGTACAAATATATATAT [XGTACX_site454] | 8.37
AATATATAGCTAAAAACACACAAATATATACACATA [CACACA_site9203] | 6.97
TTTTCGTAACTGATTCAACACACAAAAGGGGGAAAA [CACACA_site8517] | 6.71
TTATAAAAATTTAGTTGTACATGTCAAATTATCAAT [XGTACX_site7229] | 6.41
